Patent EP4450093A1 (Synaffix B.V., dated 2024)

B1: mPD-L1-v1a-218-NHO1-PF51 (2:2) (other)
light: QSALTQPASVSGSPGQSITISCTGTSSDVGAYNYVSWYQQHPGKAPKLMIYDVSNRPSGVSNRFSGSKSGNTASLTISGLQAEDEADYYCSSYTSSSTRVFGTGTKVTVLGQPKANPTVTLFPPSSEELQANKATLVCLISDFYPGAVTVAWKADGSPVKAGVETTKPSKQSNNKYAASSYLSLTPEQWKSHRSYSCQVTHEGSTVEKTVAPTEC
heavy: EVQLLESGGGLVQPGGSLRLSCAASGFTFSAYRMFWVRQAPGKGLEWVSSIYPSGGITFYADSVKGRFTISRDNSKNTLYLQMNSLRAEDTAIYYCARIKLGTVTTVDYWGQGTLVTVSSASTKGPSVFPLAPSSKSTSGGTAALGCLVKDYFPEPVTVSWNSGALTSGVHTFPAVLQSSGLYSLSSVVTVPSSSLGTQTYICNVNHKPSNTKVDKRV[human IgG1 Fc cut from this listing]
chain: MSYRGGGGSGGGGSRASRANGS[about 120 residues cut from this listing]
modifications: N-terminal serine oxidised with NaIO4 and converted to a nitrone (NHO1), joined by SPANC to BCN-PEG2-BCN linker 218; Fc N-glycan trimmed to core GlcNAc(Fuc) and extended with 6-N3-GalNAc; azide clicked to BCN linker 218 that carries the cytokine
B2: mPD-L1-v1a-218-NHO2-PF56 (2:2) (other)
light: B1 light
heavy: B1 heavy
chain: MSTGGGGSGGGGSRASRANGS[about 120 residues cut from this listing]
modifications: N-terminal serine oxidised with NaIO4 and converted to a nitrone (NHO2), joined by SPANC to BCN-PEG2-BCN linker 218; Fc N-glycan trimmed to core GlcNAc(Fuc) and extended with 6-N3-GalNAc; azide clicked to BCN linker 218 that carries the cytokine
B3: genetic fusion IC1 (other)
light: B1 light
heavy: EVQLLESGGGLVQPGGSLRLSCAASGFTFSAYRMFWVRQAPGKGLEWVSSIYPSGGITFYADSVKGRFTISRDNSKNTLYLQMNSLRAEDTAIYYCARIKLGTVTTVDYWGQGTLVTVSSASTKGPSVFPLAPSSKSTSGGTAALGCLVKDYFPEPVTVSWNSGALTSGVHTFPAVLQSSGLYSLSSVVTVPSSSLGTQTYICNVNHKPSNTKVDKRV[human IgG1 Fc with changes cut from this listing]SCPPPMSVEHADIWVKSYSLYSRERYICNSGFKRKAGTSSLTECVLNKATNVAHWTTPSLKCIRDPALVHQRPAPPSGGSGGGGSGGGSGGGGSLQ[about 120 residues cut from this listing]
B4: mPD-L1-v1a-145-NHO2-PF52 (2:1) (other)
light: B1 light
heavy: B1 heavy
chain: STGGGGSGGGGSRASRANGS[about 120 residues cut from this listing]
modifications: N-terminal serine oxidised with NaIO4 and converted to a nitrone (NHO2), joined by SPANC to the free BCN of linker 145; Fc N-glycan trimmed and extended with 6-N3-GalNAc; both azides cross-linked intramolecularly by trivalent BCN linker 145
B5: mPD-L1-v1a-218-NHO2-PF54 (2:2) (other)
light: B1 light
heavy: B1 heavy
chain: STGGGGSGGGGSGGGGSGGS[about 120 residues cut from this listing]
modifications: N-terminal serine oxidised with NaIO4 and converted to a nitrone (NHO2), joined by SPANC to BCN-PEG2-BCN linker 218; Fc N-glycan trimmed to core GlcNAc(Fuc) and extended with 6-N3-GalNAc; azide clicked to BCN linker 218 that carries the cytokine
B6: mPD-L1-v1a-218-NHO2-PF52 (2:2) (other)
light: B1 light
heavy: B1 heavy
chain: STGGGGSGGGGSRASRANGS[about 120 residues cut from this listing]
modifications: N-terminal serine oxidised with NaIO4 and converted to a nitrone (NHO2), joined by SPANC to BCN-PEG2-BCN linker 218; Fc N-glycan trimmed to core GlcNAc(Fuc) and extended with 6-N3-GalNAc; azide clicked to BCN linker 218 that carries the cytokine

How the values were obtained:
[1] = target: T1, IL-15 receptor on the IL-15 cells of the IL-15 bioassay (Promega, cat.# JA2015) (mouse cell line); assay: cell-based or functional assay
[2] = target: T1, IL-15 receptor on the IL-15 cells of …; assay: cell-based or functional assay; remark: listed apart in the source

| Binder | EC50 (pM), IL-15 bioassay (STAT-5 reporter luminescence) [1] [pM] | Fold induction, IL-15 bioassay [1] [fold] | Fold induction, IL-15 bioassay [2] [fold] | EC50, IL-15 bioassay (STAT-5 reporter luminescence) [2] [pM] |
| --- | --- | --- | --- | --- |
| B1 | 14.9 | 2.5 | – | – |
| B2 | – | – | 1.5 | – |
| B3 | – | 1 | – | – |
| B4 | 12.3 | 1.6 | – | – |
| B5 | 5.9 | 1.6 | – | – |
| B6 | 8.1 | 2.1 | 1.5 | 11.4 |

Where two headings read alike, the source gives them in different places.
